# Reference: article PMC11756514, “Recognition of Staphylococcus aureus by the pattern recognition molecules langerin, mannan-binding lectin, and surfactant protein D: the influence of capsular polysaccharides and wall teichoic acid” (Frontiers in Immunology, 2024)
# B1: Recombinant human soluble Langerin extracellular domain (ECD) (domain or fragment)
# chain: not shown
# notes: Langerin (CD207, CLEC4K), human, extracellular domain (neck region and C-terminal CRD), […] in Uniprot […]; Expressed from pET30a (GenScript); also called langerin ECD; soluble Langerin ECD
# Target: the molecule itself
# Experiment: mass photometry; purified langerin ECD after mannose-bead affinity and SEC; conditions not told in the text (Supplementary Figure S2C)
protein,measurement,value
B1,stoichiometry N,3
